The values below come from the GPR68 mutational scans of Howard et al. (2025).

The labels stand for the following.
B1: GPR68, Q15743 (parent)
chain: MGNITADNSSMSCTIDHTIHQTLAPVVYVTVLVVGFPANCLSLYFGYLQIKARNELGVYLCNLTVADLFYICSLPFWLQYVLQHDNWSHGDLSCQVCGILLYENIYISVGFLCCISVDRYLAVAHPFRFHQFRTLKAAVGVSVVIWAKELLTSIYFLMHEEVIEDENQHRVCFEHYPIQAWQRAINYYRFLVGFLFPICLLLASYQGILRAVRRSHGTQKSRKDQIQRLVLSTVVIFLACFLPYHVLLLVRSVWEASCDFAKGVFNAYHFSLLLTSFNCVADPVLYCFVSETTHRDLARLRGACLAFLTCSRTGRAREAYPLGAPEASGKSGAQGEEPELLTKLHPAFQTPNSPGSGGFPTGRLA

Variants of B1 are the subject of data set [1]. The data set can be described thus: cAMP reporter score (Enrich2 score, wild type = 0); higher = more signal; HEK293T, FACS bins.
Data set [2] covers variants of B1. The data set is described as follows: surface expression score (Enrich2 score, wild type = 0); higher = more signal; HEK293T, FACS bins.

Scores with a large standard error are left out. Two further conditions of the source, in which the scores hardly spread, are not listed. Read del as a deletion of the residues named and ins as an insertion between two positions. For some of these results: The data file names ogerin without a concentration.

Take S153del: the cAMP reporter score is -0.305 in data set [1] (pH 5.5); -0.933 in data set [1] (pH 6); -1.18 in data set [1] (pH 6, modulator: ogerin); -0.963 in data set [1] (pH 6.5, modulator: ogerin). Also, in data set [2], the surface expression score came to 0.362.

Regarding A147_E149del, the cAMP reporter score in data set [1] (pH 5.5) is -2; in data set [1] (pH 6), -1.13; in data set [1] (pH 6, modulator: ogerin) it was -1.66; in data set [1] (pH 6.5, modulator: ogerin), -0.204. The surface expression score in data set [2] was -2.67.

Regarding L150_L151del, the cAMP reporter score was -1.7 in data set [1] (pH 5.5); -1.5 in data set [1] (pH 6); -1.89 in data set [1] (pH 6, modulator: ogerin); -1.47 in data set [1] (pH 6.5, modulator: ogerin). Also, the surface expression score in data set [2] was -2.21.

For E149_L150insGS, the cAMP reporter score in data set [1] (pH 5.5) is -2.37; in data set [1] (pH 6.5, modulator: ogerin), -1.31. Moreover, the surface expression score in data set [2] was -1.66.

Take T152_S153insGS: the cAMP reporter score in data set [1] (pH 5.5) was -1.56; in data set [1] (pH 6) it was -0.405; in data set [1] (pH 6.5, modulator: ogerin) it was -1.17. In addition, the surface expression score in data set [2] is 0.716.

For the variant I154del, the cAMP reporter score was -0.888 in data set [1] (pH 5.5); -1.57 in data set [1] (pH 6); -1.92 in data set [1] (pH 6, modulator: ogerin); -2.08 in data set [1] (pH 6.5, modulator: ogerin). In addition, the surface expression score in data set [2] was -1.84.

Take I154_Y155insGS: the cAMP reporter score in data set [1] (pH 5.5) is -1.87; in data set [1] (pH 6), -1.55; in data set [1] (pH 6, modulator: ogerin) it was -1.39; in data set [1] (pH 6.5, modulator: ogerin) it was -1.28. Also, the surface expression score in data set [2] was -0.487.

For E149_L150insGSG, the cAMP reporter score is -2.39 in data set [1] (pH 5.5) and -2 in data set [1] (pH 6.5, modulator: ogerin). Further, the surface expression score in data set [2] was -3.33.

Turning to A137_A138insGSG, the cAMP reporter score in data set [1] (pH 5.5) was -1.37; in data set [1] (pH 6, modulator: ogerin), -1.27; in data set [1] (pH 6.5, modulator: ogerin) it was -2.06. In addition, the surface expression score in data set [2] was -2.35.

For the variant V143_V144insGS, the cAMP reporter score was -1.83 in data set [1] (pH 5.5); -0.876 in data set [1] (pH 6); -1.58 in data set [1] (pH 6, modulator: ogerin); -1.36 in data set [1] (pH 6.5, modulator: ogerin). Further, the surface expression score in data set [2] was -2.14.

Take A147P: the cAMP reporter score in data set [1] (pH 5.5) is -1.75; in data set [1] (pH 6, modulator: ogerin), -1.12; in data set [1] (pH 6.5, modulator: ogerin) it was -1.18. Further, the surface expression score in data set [2] is -2.5.

For the variant A147K, the cAMP reporter score in data set [1] (pH 5.5) was -1.88; in data set [1] (pH 6), -0.657; in data set [1] (pH 6, modulator: ogerin) it was -0.469; in data set [1] (pH 6.5, modulator: ogerin) it was -1.9. Further, the surface expression score in data set [2] was -1.78.

Regarding A147F, the cAMP reporter score in data set [1] (pH 5.5) is 0.801; in data set [1] (pH 6, modulator: ogerin) it was -0.6; in data set [1] (pH 6.5, modulator: ogerin) it was -1.34. Also, in data set [2], the surface expression score was 0.035.

Regarding A147T, the cAMP reporter score in data set [1] (pH 5.5) was -0.511; in data set [1] (pH 6), -0.586; in data set [1] (pH 6, modulator: ogerin) it was -0.002; in data set [1] (pH 6.5, modulator: ogerin), 0.029. Also, the surface expression score in data set [2] was 0.198.

A147C: the cAMP reporter score in data set [1] (pH 5.5) was determined as 1.46; in data set [1] (pH 6) it was 0.609; in data set [1] (pH 6, modulator: ogerin), 1.85; in data set [1] (pH 6.5, modulator: ogerin) it was 1.57. Besides, the surface expression score in data set [2] was 1.5.

Turning to A147D, the cAMP reporter score in data set [1] (pH 5.5) was -1.51; in data set [1] (pH 6), -0.49; in data set [1] (pH 6.5, modulator: ogerin), -1.24. In addition, the surface expression score in data set [2] is -3.24.

Consider A147L, for which the cAMP reporter score in data set [1] (pH 5.5) is -0.267; in data set [1] (pH 6), -0.292; in data set [1] (pH 6, modulator: ogerin), 0.131; in data set [1] (pH 6.5, modulator: ogerin), 0.387. The surface expression score in data set [2] was -0.815.

Turning to A147G, the cAMP reporter score in data set [1] (pH 5.5) was -0.202; in data set [1] (pH 6), -0.627; in data set [1] (pH 6, modulator: ogerin), 0.497; in data set [1] (pH 6.5, modulator: ogerin), -1.77. Also, in data set [2], the surface expression score was -0.779.

As for A147N, the cAMP reporter score in data set [1] (pH 5.5) was 0.548; in data set [1] (pH 6), -1.51; in data set [1] (pH 6, modulator: ogerin), -1.57; in data set [1] (pH 6.5, modulator: ogerin), -0.937. The surface expression score in data set [2] is -0.609.

With A147V, the cAMP reporter score in data set [1] (pH 5.5) turned out to be 1.35; in data set [1] (pH 6, modulator: ogerin), 1; in data set [1] (pH 6.5, modulator: ogerin), 0.94. In addition, the surface expression score in data set [2] was 1.09.

Take A147S: the cAMP reporter score in data set [1] (pH 5.5) is 0.174; in data set [1] (pH 6), -0.31; in data set [1] (pH 6, modulator: ogerin), 0.301; in data set [1] (pH 6.5, modulator: ogerin) it was 0.872. Besides, the surface expression score in data set [2] was -0.241.

For A147Q, the cAMP reporter score in data set [1] (pH 5.5) is -0.411; in data set [1] (pH 6, modulator: ogerin) it was -2.64; in data set [1] (pH 6.5, modulator: ogerin), -2.08. Moreover, the surface expression score in data set [2] is -2.51.

A147I: the cAMP reporter score in data set [1] (pH 5.5) was 0.795; in data set [1] (pH 6), 0.132; in data set [1] (pH 6, modulator: ogerin), 1.19; in data set [1] (pH 6.5, modulator: ogerin) it was -0.247. For the same variant, the surface expression score in data set [2] turned out to be 0.786.

For the variant A147Y, the cAMP reporter score in data set [1] (pH 5.5) was -1; in data set [1] (pH 6.5, modulator: ogerin), -1.57. Besides, the surface expression score in data set [2] is -2.93.

Take A147M: the cAMP reporter score is -0.525 in data set [1] (pH 5.5); -0.573 in data set [1] (pH 6); 0.037 in data set [1] (pH 6, modulator: ogerin); 0.492 in data set [1] (pH 6.5, modulator: ogerin).

As for A147H, the cAMP reporter score is -1.39 in data set [1] (pH 5.5); -0.919 in data set [1] (pH 6); -1.61 in data set [1] (pH 6, modulator: ogerin); -1.38 in data set [1] (pH 6.5, modulator: ogerin). Also, the surface expression score in data set [2] is -2.42.

On to A147E, for which the cAMP reporter score in data set [1] (pH 5.5) is -0.957; in data set [1] (pH 6), -1.45.

Turning to S142_V143insGS, the cAMP reporter score was -1.27 in data set [1] (pH 5.5); -0.733 in data set [1] (pH 6); -1.38 in data set [1] (pH 6, modulator: ogerin); -1.13 in data set [1] (pH 6.5, modulator: ogerin). The surface expression score in data set [2] is -1.59.

In the case of I154_F156del, the cAMP reporter score in data set [1] (pH 5.5) is -0.702; in data set [1] (pH 6), -1.64; in data set [1] (pH 6, modulator: ogerin) it was -0.995; in data set [1] (pH 6.5, modulator: ogerin), 0.434. Moreover, in data set [2], the surface expression score was -3.02.

With K136del, the cAMP reporter score is -1.24 in data set [1] (pH 5.5); -1.01 in data set [1] (pH 6); -0.625 in data set [1] (pH 6, modulator: ogerin); -1 in data set [1] (pH 6.5, modulator: ogerin). The surface expression score in data set [2] is -2.25.

For the variant V144_I145insGSG, the cAMP reporter score in data set [1] (pH 5.5) was -1.8; in data set [1] (pH 6), -0.375; in data set [1] (pH 6, modulator: ogerin), -1.27; in data set [1] (pH 6.5, modulator: ogerin) it was -1.88. The surface expression score in data set [2] was -2.16.

I154_Y155insGSG: the cAMP reporter score is -2 in data set [1] (pH 5.5); -0.836 in data set [1] (pH 6); -1.32 in data set [1] (pH 6, modulator: ogerin); -1.93 in data set [1] (pH 6.5, modulator: ogerin). The surface expression score in data set [2] was -1.67.

Consider L151_S153del, for which the cAMP reporter score in data set [1] (pH 5.5) was -1.32; in data set [1] (pH 6), -0.455; in data set [1] (pH 6, modulator: ogerin) it was -1.74; in data set [1] (pH 6.5, modulator: ogerin) it was -1.26. The surface expression score in data set [2] is -2.11.
